Assay results published in patent publication US20200390870A1 (MINERVA BIOTECHNOLOGIES, published 2020).

T1: PSMGFR peptide (Primary Sequence of the MUC1 Growth Factor Receptor)
T1 construct: synthetic peptide, immobilized on ELISA plates or attached to beads; also called MUC1* peptide; synthetic MUC1* extra cellular domain peptide
T1 peptide: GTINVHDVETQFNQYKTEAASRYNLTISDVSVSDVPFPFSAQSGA

T2: PSMGFR minus 10 amino acids from the N-terminus
T2 construct: also called N-10; N-10 PSMGFR
T2 peptide: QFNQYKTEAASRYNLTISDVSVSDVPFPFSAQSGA

T3: PSMGFR minus 10 amino acids from the C-terminus
T3 construct: also called C-10; C-10 PSMGFR
T3 peptide: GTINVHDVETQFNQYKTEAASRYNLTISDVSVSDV


Experiments:
[1] = molecular target: T1, PSMGFR peptide (Primary Sequence of the …); assay: ELISA on PSMGFR peptide
Text: FIGS. 21A-21B show an ELISA graph of several anti-MUC1* scFv-Fc fusion proteins wherein the Fc region has been eliminated or mutated. Shown are hu MN-E6 scFv-Fc-wt, hu MN-E6 scFv-Fc-Y407R, hu MN-E6 scFv-Fc-hingeless, and hu MN-E6 scFv-Fc-Y407R-hingeless. All mutants bind to the PSMGFR peptide of the MUC1* extracellular domain (A). An ELISA graph of several anti-MUC1* scFv-Fc fusion proteins wherein the Fc region is either wild type or mutated. Shown are hu MN-E6 scFv-Fc-wt, hu MN-E6 scFv-Fc-hingeless, and hu MN-C3 scFv-Fc is shown (B). All bind to the PSMGFR peptide of the MUC1* extracellular domain.

[2] = molecular target: T1, PSMGFR peptide (Primary Sequence of the …); assay: ELISA on immobilized peptide
[3] = molecular target: T2, PSMGFR minus 10 amino acids from the …; assay: ELISA on immobilized peptide
[4] = molecular target: T3, PSMGFR minus 10 amino acids from the …; assay: ELISA on immobilized peptide

| Binder | binding result [1] | binding result [2] | binding result [3] | binding result [4] |
| --- | --- | --- | --- | --- |
| hu MN-E6 scFv-Fc-Y407R (Fc fusion, Fc mutant made to favour monomer; chain put together from the scFv and the mutated Fc entry) EVQLVESGGGLVKPGGSLRLSCAASGFTFSRYGMSWVRQAPGKRLEWVSTISGGGTYIYYPDSVKGRFTISRDNAKNTLYLQMNSLRAEDTAVYYCTRDNYGRNYDYGMDYWGQGTLVTVSSGGGGSGGGGSGGGGSEIVLTQSPATLSLSPGERATLTCSATSSVSYIHWYQQRPGQSPRLLIYSTSNLASGIPARFSGSGSGSDYTLTISSLEPEDFAVYYCQQRSSSPFTFGSGTKVEIK[skipping human IgG1 Fc with Y407R (EU numbers)] | binds |  |  |  |
| hu MN-E6 scFv-Fc-hingeless (Fc fusion, also called humanized MN-E6 scFv-Fc-delta hinge; Dhinge) EVQLVESGGGLVKPGGSLRLSCAASGFTFSRYGMSWVRQAPGKRLEWVSTISGGGTYIYYPDSVKGRFTISRDNAKNTLYLQMNSLRAEDTAVYYCTRDNYGRNYDYGMDYWGQGTLVTVSSGGGGSGGGGSGGGGSEIVLTQSPATLSLSPGERATLTCSATSSVSYIHWYQQRPGQSPRLLIYSTSNLASGIPARFSGSGSGSDYTLTISSLEPEDFAVYYCQQRSSSPFTFGSGTKVEIK[skipping human IgG1 Fc] | binds |  |  |  |

Further lines, results first:

| binding result [1] | binding result [2] | binding result [3] | binding result [4] | Binder |
| --- | --- | --- | --- | --- |
|  | binds | binds | no binding | humanized MN-E6 scFv-Fc (wild type Fc) (Fc fusion, biotinylated for some tissue stainings; also called hu MN-E6 scFv-Fc; hu MN-E6 scFv-Fc-wt) DAAQPAEVQLVESGGGLVKPGGSLRLSCAASGFTFSRYGMSWVRQAPGKRLEWVSTISGGGTYIYYPDSVKGRFTISRDNAKNTLYLQMNSLRAEDTAVYYCTRDNYGRNYDYGMDYWGQGTLVTVSSGGGGSGGGGSGGGGSEIVLTQSPATLSLSPGERATLTCSATSSVSYIHWYQQRPGQSPRLLIYSTSNLASGIPARFSGSGSGSDYTLTISSLEPEDFAVYYCQQRSSSPFTFGSGTKVEIK[skipping human IgG1 Fc] |
| binds |  |  |  | humanized MN-C3 scFv-Fc (Fc fusion, also called hu MN-C3 scFv-Fc) DAAQPAQVQLVQSGAEVKKPGASVKVSCKASGYTFTDYAMNWVRQAPGQGLEWMGVISTFSGNTNFNQKFKGRVTMTTDTSTSTAYMELRSLRSDDTAVYYCARSDYYGPYFDYWGQGTTLTVSSGGGGSGGGGSGGGGSDIVMTQTPLSLSVTPGQPASISCRSSQTIVHSNGNTYLEWYLQKPGQSPQLLIYKVSNRFSGVPDRFSGSGSGTDFTLKISRVEAEDVGVYYCFQGSHVPFTFGGGTKVEIKRT[skipping human IgG1 Fc] |
